Measured values reported in PubChem BioAssay AID1508624 (National Center for Advancing Translational Sciences (NCATS), 2021).
The campaign covered roughly 48,000 compounds. About 120 (0.25%) were called active. About 4% were inconclusive and are not listed. The call rests on the fitted dose curve; in most records, active means well fitted activation curve with a large enough effect; inconclusive means small, poorly fitted or top-dose-only effect, or another doubt; inactive means no such curve, though single readings can be large or run the other way. Some of the results follow.

assay: Primary qHTS for Identification of Small Molecule Activators of Huntingtin-Antisense Promoter Activity; conditions: HEK293 HTT-AS promoter firefly luciferase reporter, 24 h; series mostly up to 57.5 µM; activity change, positive = activation: at the top concentration; further: nearly all actives have a fitted effect of over 55% in size
Procedure, shortened: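 Firefly luciferase readout (Dual-Glo, 10 min RT) after 24 h, 37 °C compound exposure (final up to 57.5 uM) of HEK293 reporter cells cultured 24 h beforehand; PTC124 at 50 uM final as control inhibitor; activity scaled vehicle 0%, zero RLU -100%.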

Activity change, positive = activation, inactive:
COC(=O)CSc1nnc2n(-c3ccccc3)c(=O)c3c4c(sc3n12)COC(C(C)C)C4 (stereo not given) -11%
CCC(=O)N1CCc2cc(S(=O)(=O)N(C)c3cccc(C)c3)ccc21 -17%
CS(=O)(=O)c1ccc([C@@H](O)[C@@H](CO)NC(=O)C(Cl)Cl)cc1
CCN(c1cc(C)cc(C)c1)S(=O)(=O)c1nnc(NC(=O)c2cccc(F)c2)s1 -51.5%
CCOc1ccccc1N1CC(c2nc3ccccc3n2CCOc2ccc(C(C)(C)C)cc2)CC1=O (stereo not given) -15.9%
COc1c(C)c2c(c(O)c1CC=C(C)CCC(=O)O)C(=O)OC2 -29.1%
CCOc1ccccc1N(C)C(=O)Cn1nc(Cc2cccnc2)c2ccccc2c1=O -15.9%
CCOC(=O)N1CCC(NC(=O)c2cnn(-c3ccc(C)cc3C)c2C2CCN(C(=O)OC(C)(C)C)CC2)CC1 0%
CC(=O)Nc1cccc(Nc2nc3ccccc3n3c(C)nnc23)c1 26.2%
O=C(CN1CCCN(Cc2ccc(F)cc2)S1(=O)=O)Nc1ccc2c(c1)OCCO2 -4.3%
CCc1nn(CCCC(=O)NCc2ccc(C)cc2)c(=O)c2cc3occc3n12 -16.3%
CCOc1ccccc1N(C)C(=O)Cn1nc(Cc2ccncc2)c2ccccc2c1=O -20.7%
CCc1ccc(NC(=O)CC2C(=O)N(c3ccc(C)cc3)C(=O)N2C2CCCC2)cc1 (stereo not given) -2.77%
CC(C)(C)c1ccc(Oc2nc3ccccn3c(=O)c2/C=C(\C#N)c2nc3ccccc3s2)cc1 2.09% [at 11.5 µM, percent change from vehicle, -100% = no light]
C[C@@H](c1ncncc1F)[C@](O)(Cn1cncn1)c1ccc(F)cc1F -12.7%
COc1ccc2c(c1)CCc1sc(NC(=O)c3ccc(Br)cc3)nc1-2 -36.2%
CN(C)c1oc(-c2ccc(COc3ccccc3)o2)nc1C#N -24.2%
COc1ccc(N2CCN(S(=O)(=O)CCNC(=O)c3cc(=O)c4ccccc4o3)CC2)cc1 -2.34%
CC(C)CN(CCNC(=O)c1cn(C)c2ccc(S(=O)(=O)N3CCCCCC3)cc2c1=O)CC(C)C -5.12%
COc1cc(NC(=O)Cn2ccn(-c3cc(C)cc(C)c3)c(=O)c2=O)cc(OC)c1 -13.3%
Cc1cc(C)cc(NC(=O)CSc2nc(=O)[nH]c3c2CCC3)c1 -26%
Cc1cc(C)cc(NC(=O)CSc2nc3ncccc3[nH]2)c1 -10.4%
Cc1ccc(NC(=O)C(=O)NCC(c2ccc3c(c2)OCO3)N2CCN(C)CC2)c(C)c1 (stereo not given) -15.1%
Cc1ccc(NC(=O)C(Cc2ccccc2)NS(=O)(=O)c2ccc3c(c2)CCC(=O)N3)cc1 (stereo not given) -18.6%
CS(=O)(=O)c1cccc(-c2nnc(NC(=O)c3ccc4c(c3)OCCO4)o2)c1 0.212%
